# Laboratory results from PubChem BioAssay AID463173 (ICCB-Longwood Screening Facility, Harvard Medical School, 2010).
# Out of some 52,000 compounds screened, about 4,300 (8.3%) were called active. Rule as the data show it: active = survival mostly below about 52% (no sharp cut-off); inactive = mostly above about 56%. The list shows a part of the results.
# Tested on: DeltatarO mutant
# Experiment: S. aureus survival, RN4220 and DeltatarO strains – OD600, teichoic acid synthesis inhibitors, primary screen (AID 463173)
# Details: S. aureus RN4220 wild type/DeltatarO growth, OD600, 18 h, hits give low values, screened at 18.75 µg/mL (by protocol)
row,Compound,survival
1,COc1ccc(NC(=O)c2oc3ccccc3c2NC(=O)c2cc3ccccc3o2)cc1,inactive: 89%
2,CCOc1ccc(NS(=O)(=O)c2ccc3[nH]cc(C(=O)N(C)Cc4ccccc4)c(=O)c3c2)cc1,active: 6%
3,Cc1ccc(OC(=O)c2cc(-c3ccc4c(c3)OCCO4)on2)cc1C,active: -2%
4,COc1ccc2c(c1)CC(NC(=O)Nc1c(C)cc(C)cc1C)CO2 (stereo not given),inactive: 69%
5,Cc1ccccc1OCC(=O)OCc1cc(=O)n2nc(C3CCCCC3)sc2n1,inactive: 85%
6,CCCNc1ncccc1C(N)=O,inactive: 110%
7,CC(=O)c1ccc(N2CCN(S(=O)(=O)c3ccc(-c4cc(C(F)(F)F)on4)s3)CC2)cc1,inactive: 96%
8,CSc1cccc(NC(=O)Cn2c3ncccc3c(=O)n2-c2ccc(C)cc2)c1,inactive: 105%
9,Cc1csc2nc(COc3ccccc3NC(=O)c3ccco3)cc(=O)n12,inactive: 135%
10,Cc1ccc(C)c(CN2C(=O)c3ccccc3S(=O)(=O)c3ccc(C(=O)N4CCCCCC4)cc32)c1,inactive: 67%
11,CCOC(=O)c1ccc2oc(=O)n(Cc3ccccc3)c2c1,inactive: 83%
12,CC(=O)Nc1ccc(C2Sc3ccccc3NC3=C2C(=O)c2ccccc23)cc1 (stereo not given),inactive: 116%
13,Cc1cccc(N2C(=O)CS/C2=N\NC(=O)c2cccnc2)c1C,inactive: 114%
14,Cc1oc2ncn(CC(C)C)c(=O)c2c1C(=O)NCCCN1CCCCC1,inactive: 101%
15,Cc1cc(C)c(NC(=O)c2cc3sc(Cl)cc3n2C)c(C)c1,inactive: 128%
16,COc1ccccc1CNC(=O)c1ccc(N2CCCC2)c(NC(=O)NCCC(C)C)c1,inactive: 94%
17,O=C(COc1ccc(F)cc1)Nc1ccc2nc(SCC(=O)N3CCc4ccccc43)sc2c1,inactive: 57%
18,COc1cccc(NC(=O)CSc2ncc(S(=O)(=O)c3ccc(C)c(C)c3)c(=O)[nH]2)c1,inactive: 63%
19,COc1ccc(OCCCCn2c(-c3ccc(Cl)cc3)nc3ccccc3c2=O)cc1,active: 34%
20,CCCCCOC(=O)CSc1ncnc2c1sc1nc(N3CCOCC3)c3c(c12)CCCC3,inactive: 71%
21,Cc1ccc(C(=O)CC2(O)C(=O)N(CCc3ccccc3)c3ccc(Cl)cc32)cc1 (stereo not given),active: 17%
22,Cc1cc(Nc2cccc(C)c2C)n2cnnc2n1,inactive: 100%
23,Cn1c(=O)c2c(-c3ccccc3Cl)n(-c3cc(Cl)ccc3O)cc2n(C)c1=O,active: 53%

row,Compound,survival
1,COc1cc(NC(=O)CCc2nc(-c3cccs3)no2)cc(OC)c1OC,inactive: 101%
2,Cc1ccc2c(=O)cc(C(=O)Nc3cccc(Cl)c3C)oc2c1C,inactive: 54%
3,CCc1nnc(SCc2nc(-c3ccc(OC)c(OC)c3)oc2C)c2cc3sc(C)cc3n12,inactive: 69%
4,Cc1ccc(/C=C/c2onc(C)c2S(=O)(=O)N2CCC(C(=O)NCc3ccc(C)o3)CC2)cc1,inactive: 129%
5,COc1cccc(CNC(=O)Cc2ccc(NC(=O)N3CCCCc4ccccc43)cc2)c1OC,inactive: 68%
6,COc1ccc(Nc2ncc(C(=O)N3CCN(c4cccc(Cl)c4)CC3)c3ccccc23)cc1,inactive: 62%
7,Cc1cccc(NC(=O)CSc2nc(-c3ccccc3)cn2-c2ccccc2)c1C,inactive: 88%
8,CCc1ccc2ncc3c(-c4ccc(F)cc4)nn(CC(=O)NCc4ccccc4)c3c2c1,inactive: 69%
9,COc1ccc(CNC(=O)c2c(O)nc3cc(C)ccn3c2=O)cc1,inactive: 78%
10,CC(C)CC(C(=O)NCc1ccc(F)cc1)N1Cc2ccccc2C1=O (stereo not given),inactive: 88%
11,CCc1ccccc1NC(=O)CN1CCC(NC(=O)NC2CCCCC2)CC1,inactive: 71%
12,CCOc1ccc(-c2nc(SCC(=O)Nc3ccc(C)c(C)c3)n3[nH]c(=O)cc3n2)cc1,inactive: 78%
13,Cc1ccc(C(C)C)c(OCC(=O)Nc2ccc(C(=O)OC3CCCCC3)cc2)c1,active: 33%
14,Cc1ccc(-c2csc(=Nc3ccccc3)n2Cc2ccc3c(c2)OCO3)cc1C,inactive: 112%
15,CCN1CCN(C(c2ccccc2)c2sc3nc(-c4ccco4)nn3c2O)CC1 (stereo not given),inactive: 92%
16,COc1ccc(S(=O)(=O)c2c(Nc3ccc(F)cc3)sc(C(=O)c3ccc4c(c3)OCO4)c2N)cc1,inactive: 116%
17,CCOc1ccccc1C(=O)Oc1c(Sc2ccccc2)c(C)nn1C(C)(C)C,inactive: 91%
18,COc1ccc(N2CCN(C(=O)c3ccc4c(c3)N(Cc3ccc(F)cc3)C(=O)c3ccccc3S4=O)CC2)cc1 (stereo not given),inactive: 116%
19,COc1ccccc1C(=O)n1nc(-c2ccco2)nc1NCc1ccc(Cl)cc1,inactive: 54%
20,CCCn1c(C(O)c2cc(OC)c(OC)c(OC)c2)nc2ccccc21 (stereo not given),inactive: 75%
21,CC(C(=O)Nc1cc(C(F)(F)F)ccc1Cl)n1nnc2sc3c(c2c1=O)CCCC3 (stereo not given),active: 53%
22,Cc1ccccc1C(=O)NCc1nc2cccnc2n1Cc1ccccc1,inactive: 83%
23,Cc1ccc2oc(-c3ccc(C)c(NC(=O)c4ccc(C(C)(C)C)cc4)c3)nc2c1,inactive: 136%

row,Compound,survival
1,CCCC(=O)Nc1ccc(NC(=O)c2ccc3c(c2)OCO3)cc1,inactive: 104%
2,COc1ccc(-c2cn3c(n2)sc2cc(C(=O)NCCCN4CCCCCC4)ccc23)cc1,inactive: 64%
3,Nc1cc(N)nc(SCC(=O)Nc2ccccc2)n1,inactive: 104%
4,N#C/C(=C\c1cn(CCOc2ccccc2)c2ccccc12)C(=O)N1CCCC1,inactive: 51%
5,COc1ccccc1NC(=O)c1c(NCc2ccc(C)o2)sc2c1CCC(C)C2 (stereo not given),inactive: 90%
6,N#Cc1nc2c(nc1C#N)-c1ccccc1C2=O,active: 19%
7,COCCc1nn2c(=O)cc(COC(=O)COc3ccc(F)cc3)nc2s1,inactive: 109%
8,CN1CCN(c2oc(-c3ccc(COc4ccc(Cl)cc4)o3)nc2C#N)CC1,active: 45%
9,CC1(C)Nc2ccccc2C(=O)N1c1ccccc1,inactive: 98%
10,Cc1nc2ccccc2n1CCc1nc2c3ccccc3nc(SCC(=O)Nc3ccc(Br)cc3F)n2n1,inactive: 98%
11,COc1ccc(-c2nc3ccccc3o2)cc1NC(=O)C(C)Oc1ccc(Cl)cc1Cl (stereo not given),active: 38%
12,CC(C)C12CN3CC(C(C)C)(CN(C1)C3c1ccc(Cl)cc1)C2=O (stereo not given),active: 39%
13,CN(C)CCCN(C(=O)c1cccs1)c1nc2ccc(F)cc2s1,inactive: 92%
14,O=C(CN1C(=O)CCc2cc(S(=O)(=O)N3CCOCC3)ccc21)Nc1cccc(Cl)c1,inactive: 75%
15,N#Cc1nc(-c2ccc(COc3ccccc3)o2)oc1NCc1ccccc1,inactive: 70%
16,CCCSc1ncc(Cl)c(C(=O)N(Cc2ccc(N(C)C)cc2)C2CCS(=O)(=O)C2)n1 (stereo not given),inactive: 91%
17,COc1ccc(NC(=O)Cn2cnc3sc(C)c(S(=O)(=O)N4CCN(C)CC4)c3c2=O)cc1Cl,inactive: 150%
18,CCC(O)c1cc2c(cc1NC(=O)c1cccc(Br)c1)OCCO2 (stereo not given),inactive: 56%
19,CCOC(=O)c1cccc(NC(=O)c2cc(CN3CCOCC3)on2)c1,inactive: 94%
20,CCN(CC)S(=O)(=O)c1ccc(C(=O)Nc2nc3c(Cl)cc(Cl)cc3s2)cc1,inactive: 124%
21,CCOC(=O)c1ccc(NC(=O)COCc2cc(-c3ccc4c(c3)OCO4)on2)cc1,inactive: 83%
22,CNC(=O)C1CCC(Cn2c(=O)[nH]c3ccsc3c2=O)CC1 (stereo not given),inactive: 99%
23,CCOC(=O)CNC(=O)N1CCc2cc(S(=O)(=O)N3CCC(C)CC3)ccc21,inactive: 89%

row,Compound,survival
1,Cc1ccc(NS(=O)(=O)c2ccc3c(c2)NC(=O)CCS3)cc1C,inactive: 79%
2,Cc1cccc(OC(=O)c2cc(-c3ccc4c(c3)OCCO4)on2)c1,active: -2%
3,COc1ccc2[nH]c(=O)c(CNCc3ccccc3)cc2c1,inactive: 106%
4,Cc1ccccc1-n1c(/C=C/c2c(C)n(C)c3ccccc23)nc2ccccc2c1=O,inactive: 57%
5,CN(c1ccc(C(=O)NCC2CCCO2)cc1)S(C)(=O)=O (stereo not given),inactive: 74%
6,N#Cc1nc(/C=C/c2ccc(F)cc2)oc1N1CCN(c2ccccc2)CC1,inactive: 73%
7,CC(C)c1ccc(OCC(=O)Nc2c(Cl)ccc3nsnc23)cc1,active: 41%
8,Cc1noc(Cn2c(=O)c3ccccc3n(CC(=O)Nc3cccc(Cl)c3C)c2=O)n1,inactive: 75%
9,CC1CCN(c2nn3c(=O)c(C(=O)NCc4ccc(Cl)cc4)cnc3s2)CC1,inactive: 73%
10,CCOc1ccccc1NC(=O)C1CCN(c2ncccn2)CC1,inactive: 107%
11,CC(=O)N1CCCc2cc(S(=O)(=O)N(C)CC(=O)Nc3ccc(C)cc3C)ccc21,inactive: 89%
12,COc1ccc(C2C(=O)N(C3CCC(C)CC3)CC(=O)N2Cc2ccccc2Cl)cc1OC (stereo not given),inactive: 72%
13,Cc1ccc(Sc2c(C)nn(C(=O)COc3ccc(F)cc3)c2C)cc1,inactive: 92%
14,O=C(NCCN1CCN(c2ccccc2)CC1)Nc1ccccc1Br,inactive: 87%
15,Cc1cccc(-c2noc(-c3cccnc3NCc3ccco3)n2)c1,active: 44%
16,O=C(Nc1cccc(NC(=O)c2ccc(Br)o2)c1)c1ccccc1,inactive: 55%
17,COc1cccc(C2c3c(oc4ccc(C)cc4c3=O)C(=O)N2CCCN2CCOCC2)c1OC (stereo not given),inactive: 135%
18,COc1ccc(-n2c(=O)c3c4c(sc3n(Cc3cc(C)ccc3C)c2=O)CN(C(C)=O)CC4)c(OC)c1,inactive: 93%
19,Cc1ccccc1-n1cc(-c2ccccc2)nc1SCC(=O)Nc1ccc(F)cc1,inactive: 94%
20,CC(C)C(NC(=O)OCc1ccccc1)C(=O)N1CCOCCOCCOCC1 (stereo not given),inactive: 75%
21,CCCn1c2ccccc2c2cnn(CC(=O)N3CCC(C(=O)OCC)CC3)c(=O)c21,inactive: 66%
